Laboratory results: publication PMC6919601, “Identification of Plasmodium dipeptidyl aminopeptidase allosteric inhibitors by high throughput screening” (PLoS ONE, 2019)
About 230 (0.21%) of roughly 110,000 compounds showed an effect of 50% or more. Some of the results follow.

Target: DPAP1 (Plasmodium falciparum, UniProt Q8IIJ9)
Test: primary screen, percent inhibition; read by cleavage of a fluorogenic dipeptide substrate; higher = more effect of the substance
Set-up: species or system P. falciparum D10 trophozoite lysates; single well
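Further: 30 min substrate incubation versus DMSO and 10 µM JCP410 controls.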

DPAP1, sequence (Q8IIJ9 whole entry, looked up): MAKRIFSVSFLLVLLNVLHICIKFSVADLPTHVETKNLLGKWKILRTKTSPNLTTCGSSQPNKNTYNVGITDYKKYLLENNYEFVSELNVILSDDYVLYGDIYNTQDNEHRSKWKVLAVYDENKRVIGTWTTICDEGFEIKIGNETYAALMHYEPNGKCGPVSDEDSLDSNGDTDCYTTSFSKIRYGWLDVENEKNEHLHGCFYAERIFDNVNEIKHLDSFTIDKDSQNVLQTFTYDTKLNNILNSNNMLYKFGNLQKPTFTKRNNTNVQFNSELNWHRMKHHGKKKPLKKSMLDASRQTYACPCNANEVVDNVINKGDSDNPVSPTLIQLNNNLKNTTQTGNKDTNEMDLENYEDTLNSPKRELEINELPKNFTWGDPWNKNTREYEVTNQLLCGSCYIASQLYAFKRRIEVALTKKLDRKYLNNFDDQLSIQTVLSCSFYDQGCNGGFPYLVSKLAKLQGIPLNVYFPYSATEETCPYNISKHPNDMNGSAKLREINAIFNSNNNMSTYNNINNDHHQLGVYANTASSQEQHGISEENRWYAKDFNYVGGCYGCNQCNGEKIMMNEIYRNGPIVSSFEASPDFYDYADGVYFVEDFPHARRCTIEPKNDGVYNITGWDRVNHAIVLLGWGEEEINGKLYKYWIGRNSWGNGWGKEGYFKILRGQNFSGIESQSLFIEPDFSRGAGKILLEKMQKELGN

Compound	% Inhibition @ 10 uM
N#C/C(=C\c1ccccc1[N+](=O)[O-])c1nc(-c2ccc(Cl)cc2)cs1	-7.57%
O=C(CN1C(=O)c2ccccc2C1=O)Nc1cccc(Cl)c1	-3.92%
O=C(c1cc(=O)c2cc(Cl)ccc2o1)N1CCC(Cc2ccccc2)CC1	0.248%
CC(C)C[C@H](NC(=O)OCc1ccccc1F)C(=O)NCC#N	-3.04%
Cc1c(C#N)c(=O)ncn1-c1ccc(Cl)cc1	9.08%
CCN(CC)CC#CC(O)(c1ccccc1)c1cccnc1 (stereo not shown)	-0.902%
CCOC(=O)c1nnn(-c2nonc2N)c1CN1CCc2ccccc2C1	9.19%
Cc1[nH]nc(Nc2ccc(C(=O)O)cc2)c1[N+](=O)[O-]	3.31%
Cc1ccc(C)c(NC(=O)C(C)Oc2ccccc2C)c1 (stereo not shown)	-0.95%
CC(C)C(=O)Nc1ccc(NC(=O)COc2ccc(Br)cc2)cc1	17.5%
CCOc1ccc(C2C(C(N)=O)=C(C)Nc3nc(-c4cccc(C)c4)nn32)cc1 (stereo not shown)	-1.47%
CC(C)c1ccc(CN(C(=O)c2ccco2)C2CCS(=O)(=O)C2)cc1 (stereo not shown)	6.79%
CCC(=O)Nc1ccc(N2CCN(S(C)(=O)=O)CC2)cc1	-0.737%
O=C1c2ccccc2NC(c2cccc(O)c2)N1c1ccc(F)cc1 (stereo not shown)	0.163%
O=C(Oc1ccccc1)c1sc2ccccc2c1Cl	5.5%
O=C(CSc1nc(O)c2cnn(-c3ccccc3)c2n1)N1CCOCC1	-5.22%
CN1c2ccccc2NC2ONC(c3ccc(Br)cc3)=NC21 (stereo not shown)	3.15%
CCc1ccc(/C=C2\SC(N3CCCC3)=NC2=O)cc1	3.72%
CCOc1ccc(N(C(C)C(=O)N2CCC(C)CC2)S(C)(=O)=O)cc1 (stereo not shown)	-10.7%
O=C(c1ccc(Cl)cc1)C12CN3CN(CN(C3)C1)C2	-4.39%
CC(C(=O)Nc1cccc(F)c1)N1C(=O)c2ccccc2C1=O (stereo not shown)	3.93%
CCOCCCN(Cc1ccco1)C(=O)c1cc2c(Cl)nc3ccccc3c2s1	1.1%

Compound	% Inhibition @ 10 uM
CCS(=O)(=O)C1=NN2C(=N)/C(=C\c3cc(C)n(-c4ccccc4OC)c3C)C(=O)N=C2S1	-3.35%
Cn1c(=O)c(C(=O)c2cccnc2)c(O)c2ccccc21	5.73%
Cc1nnc(N2CCC(C(=O)NCc3cccnc3)CC2)c2nn(-c3ccc(Cl)cc3)c(C)c12	5.84%
COc1cc(OC)cc(C(=O)Nc2nc(-c3nnn(-c4cccc(Cl)c4C)c3C)ns2)c1	-4.52%
OC1(c2ccc(Cl)cc2)C[N+](c2ccc(Cl)cc2)=C2SCCCN21 (stereo not shown)	-1.4%
CN(C)C(CNC(=O)c1cccs1)c1cccnc1 (stereo not shown)	2.9%
CC1CCCC(NC(=O)c2cc3c(s2)-c2ccccc2OC3)C1C (stereo not shown)	0.291%
CC1=C(C(=O)OC2CCCC(C)C2)C(c2ccccc2Cl)NC(=O)N1 (stereo not shown)	4.61%
CC(C)NC(=O)N1Cc2ccccc2-n2cccc2C1c1ccccc1 (stereo not shown)	3.53%
Clc1ccc(C(NC2CCN(CCc3ccccc3)CC2)c2ccccc2)cc1 (stereo not shown)	1.57%
O=C(Nc1ccccc1Br)c1ccc(N2C(=O)c3ccccc3C2=O)cc1	3.03%
O=C(Nc1ccc2c(c1)OCO2)c1cc2nc(-c3ccco3)cc(C(F)(F)Cl)n2n1	2.02%
O=C1CC(c2cc3c(cc2Br)OCO3)C2=C(CCCC2=O)N1 (stereo not shown)	2.35%
O=C(NCc1cccnc1)C1CCCN(S(=O)(=O)N2CCC3(CC2)OCCO3)C1 (stereo not shown)	-1.97%
Cc1cc(C)c(C#N)c(SCCN2CCOCC2)n1	-0.267%
CC1(C)C(C)(C(=O)O)C12CCC2C(=O)NCc1ccco1 (stereo not shown)	-3.92%
CCC(CC)COC(=O)C1=C(C)NC(=O)CC1c1ccc(Cl)cc1Cl (stereo not shown)	4.23%
Cc1ccc(N2C(=O)/C(=C\N3CCOCC3)c3ccccc3C2=O)cc1	-8.49%
CC(=O)NC1(CC(=O)C(C)(C)C)CCC1	-0.415%
COc1cc(C2NC(=O)NC(C)=C2C(=O)NCc2ccccc2)ccc1OCC(N)=O (stereo not shown)	-1.16%
CC(C)N(Cc1nc(-c2ccccc2)no1)C(=O)COc1ccccc1Cl	-0.942%
CC1=C(C#N)C(c2ccc(O)cc2)C2=C(O)CCCC2=N1 (stereo not shown)	2.16%

Compound	% Inhibition @ 10 uM
Cc1nc2ccccc2n1CCOc1ccccc1	2.57%
Cc1ccc(N(CC(=O)Nc2ccccc2F)S(C)(=O)=O)cc1C	-1.43%
Fc1ccccc1-n1nnnc1SCc1cc2c(cc1Cl)OCO2	4.66%
CC(CCc1ccccc1)NC(=O)c1cc(O)nc2ccc(S(=O)(=O)N3CCCCC3)cc12 (stereo not shown)	3.81%
CN1CCN(C(=O)c2cc3ccc4cccnc4c3[nH]2)CC1	0.711%
Cc1ccc2c(c1)n(Cc1ccccc1)c(=O)n2Cc1ccccc1	-1.22%
O=C(O)c1cc(Sc2ccc(Cl)cc2)nc2ccccc12	-0.406%
COc1ccccc1C(=O)Nc1ccc(S(N)(=O)=O)cc1	-2.74%
CCOCCCNC(=O)c1c(NC(=O)c2nc(S(C)(=O)=O)ncc2Cl)sc2c1CCC2	-4.64%
COc1ccc(-n2c3c(c(=O)[nH]c2=O)C(C(F)(F)F)(C(F)(F)F)NC(c2cccs2)=N3)cc1	0.83%
N#Cc1ccccc1Cn1c(-c2nonc2N)nc2ccccc21	0.52%
COc1ccc(OC)c(S(=O)(=O)c2cc3cccc(OC)c3oc2=O)c1	3.75%
CC(C)c1cccc(OCCOCCN2CCNCC2)c1	-7.58%
Cc1ccc(-c2c(C(=O)O)oc(=O)c3ccccc23)cc1C	0.936%
C/C=C/CSc1nc2c(c(=O)[nH]c(=O)n2C)n1C(C)C	-1.44%
CC(C)(C)NC(=O)/C(=C\c1ccco1)NC(=O)c1cccs1	-4.8%
CCCN1CCN(CCCNC(=O)c2cnc(SC)nc2-c2ccccc2)CC1	-0.742%
CCOC(=O)c1c(NC(=O)CCCOc2cccc(C)c2)sc(C)c1C	-1.25%
CCCCC(=O)Nc1cc(-c2ccc(C)cc2)no1	-1.47%
CCN(Cc1ccccc1)C(=O)Cn1ncc2c1-c1ccccc1OC2	-2.42%
